# Results reported in the supplement of paper PMC8728848.
# Some of the results follow.
# B1: PX9896A-bth-573-26-573 (Bacteroides thetaiotaomicron) (protein)
# chain: ETNNLKTKEDMYKYFGTSKSMLTHVYSYMPQGYQLFATSGGIFTEDRYSMRDCASDDGEFGAYADNIQNTNNGNWSPIKTYDDSWTLYRGIRAANSFIAEIAQVDFTRYEHDGQYTNWMKQLKYFPYEARVLRAHYFFELARRYGDIAMPLEVLTEEEANTIGKTPFSEVISFIVSECDDAANNLPDSYVNEPGAEIGRVTKGFAMAVKSKALLYAASKLHNPSMDTELWKKSAKAAIDIINTGLYSLDPQESANNLDSKEVVLMRINGDDSDFEMFNLPLRMTAGTRTSSLIPYSNYPSQNLVDAFETVNGYKVTLENTGWVCEDPAFDPQSPYENRDKRFYRAILANGMSFKDYTIETFKGGADDGIVSQGGSPTGYFLRKYIQEATSFEPGKEAVSKHHWVIYRYAETLLTYAESMVNAFNDVNYTDETYKYSALWAINEVRKNADMPLIPSMGKDEFMERLYNEWRVEFAFEDHRFWDVRRWKIADTTQRELYGVKIEKQADGTFNFYKNLYETRNWRDCMYLYPIPQSELYKNTNLNPQNTGW
# What was measured:
# Experiment in all cases: glycan array binding signal (z-score within array); higher = stronger binding
# Settings in all cases: glycan notation: IUPAC condensed, linker removed
# [1] = target: Neu5Ac(a2-3)Gal(b1-4)GlcNAc(b1-6)GalNAc
# In short: (§1)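 Columns mapping to the same glycan were averaged after glycan names were converted to IUPAC-condensed notation. The data come from 3228 arrays in the Consortium for Functional Glycomics database, limited to those with an available protein sequence. Binding is reported as a within-array Z-score averaged across arrays of one protein sequence and across linkers.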
# [2] = target: Neu5Ac(a2-3)Gal(b1-4)GlcNAc(b1-6)[Gal(b1-3)]GalNAc
# In short: as §1
# [3] = target: Neu5Ac(a2-3)Gal(b1-4)GlcNAc(b1-6)[Neu5Ac(a2-3)Gal(b1-3)]GalNAc
# In short: as §1
# [4] = target: Neu5Ac(a2-3)Gal(b1-4)GlcNAc6S
# In short: as §1
# [5] = target: Neu5Ac(a2-3)Gal(b1-4)[Fuc(a1-3)]GlcNAc
# In short: as §1
# [6] = target: Neu5Ac(a2-3)Gal(b1-4)[Fuc(a1-3)]GlcNAc(b1-2)Man
# In short: as §1
# [7] = target: Neu5Ac(a2-3)Gal(b1-4)[Fuc(a1-3)]GlcNAc(b1-3)Gal
# In short: as §1
# [8] = target: Neu5Ac(a2-3)Gal(b1-4)[Fuc(a1-3)]GlcNAc(b1-3)Gal(b1-4)GlcNAc
# In short: as §1
# [9] = target: Neu5Ac(a2-3)Gal(b1-4)[Fuc(a1-3)]GlcNAc(b1-3)Gal(b1-4)[Fuc(a1-3)]GlcNAc(b1-3)Gal(b1-4)[Fuc(a1-3)]GlcNAc
# In short: as §1
# [10] = target: Neu5Ac(a2-3)Gal(b1-4)[Fuc(a1-3)]GlcNAc(b1-3)GalNAc
# In short: as §1
# [11] = target: Neu5Ac(a2-3)Gal(b1-4)[Fuc(a1-3)]GlcNAc(b1-6)[Gal(b1-3)]GalNAc
# In short: as §1
# [12] = target: Neu5Ac(a2-3)Gal(b1-4)[Fuc(a1-3)]GlcNAc(b1-6)[Neu5Ac(a2-3)Gal(b1-3)]GalNAc
# In short: as §1
# [13] = target: Neu5Ac(a2-3)Gal(b1-4)[Fuc(a1-3)]GlcNAc6S
# In short: as §1
# [14] = target: Neu5Ac(a2-3)Gal6S(b1-4)GlcNAc
# In short: as §1
# [15] = target: Neu5Ac(a2-3)Gal6S(b1-4)[Fuc(a1-3)]GlcNAc
# In short: as §1
# [16] = target: Neu5Ac(a2-3)GalNAc
# In short: as §1
# [17] = target: Neu5Ac(a2-3)GalNAc(b1-4)GlcNAc
# In short: as §1
# [18] = target: Neu5Ac(a2-3)[GalNAc(b1-4)]Gal(b1-4)Glc
# In short: as §1
# [19] = target: Neu5Ac(a2-3)[GalNAc(b1-4)]Gal(b1-4)GlcNAc
# In short: as §1
# [20] = target: Neu5Ac(a2-3)[GalNAc(b1-4)]Gal(b1-4)GlcNAc(b1-3)GalNAc
# In short: as §1
# [21] = target: Neu5Ac(a2-3)[Neu5Ac(a2-6)]GalNAc
# In short: as §1
# [22] = target: Neu5Ac(a2-6)Gal
# In short: as §1
# [23] = target: Neu5Ac(a2-6)Gal(b1-3)GlcNAc(b1-3)[Gal(b1-4)GlcNAc(b1-6)]Gal(b1-4)Glc
# In short: as §1
# [24] = target: Neu5Ac(a2-6)Gal(b1-4)Glc
# In short: as §1
# [25] = target: Neu5Ac(a2-6)Gal(b1-4)GlcNAc
# In short: as §1
# [26] = target: Neu5Ac(a2-6)Gal(b1-4)GlcNAc(b1-2)Man
# In short: as §1
# [27] = target: Neu5Ac(a2-6)Gal(b1-4)GlcNAc(b1-2)Man(a1-3)Man(b1-4)GlcNAc(b1-4)GlcNAc
# In short: as §1
# [28] = target: Neu5Ac(a2-6)Gal(b1-4)GlcNAc(b1-2)Man(a1-3)[Gal(b1-4)GlcNAc(b1-2)Man(a1-6)]Man(b1-4)GlcNAc(b1-4)GlcNAc
# In short: as §1
# [29] = target: Neu5Ac(a2-6)Gal(b1-4)GlcNAc(b1-2)Man(a1-3)[GlcNAc(b1-2)Man(a1-6)]Man(b1-4)GlcNAc(b1-4)GlcNAc
# In short: as §1
# [30] = target: Neu5Ac(a2-6)Gal(b1-4)GlcNAc(b1-2)Man(a1-3)[GlcNAc(b1-4)][Neu5Ac(a2-6)Gal(b1-4)GlcNAc(b1-2)Man(a1-6)]Man(b1-4)GlcNAc(b1-4)GlcNAc
# In short: as §1
# [31] = target: Neu5Ac(a2-6)Gal(b1-4)GlcNAc(b1-2)Man(a1-3)[Man(a1-6)]Man(b1-4)GlcNAc(b1-4)GlcNAc
# In short: as §1
# [32] = target: Neu5Ac(a2-6)Gal(b1-4)GlcNAc(b1-2)Man(a1-3)[Neu5Ac(a2-3)Gal(b1-4)GlcNAc(b1-2)Man(a1-6)]Man(b1-4)GlcNAc(b1-4)GlcNAc
# In short: as §1
# [33] = target: Neu5Ac(a2-6)Gal(b1-4)GlcNAc(b1-2)Man(a1-3)[Neu5Ac(a2-6)Gal(b1-4)GlcNAc(b1-2)Man(a1-6)]Man(b1-4)GlcNAc(b1-4)GlcNAc
# In short: as §1
# [34] = target: Neu5Ac(a2-6)Gal(b1-4)GlcNAc(b1-2)Man(a1-3)[Neu5Ac(a2-6)Gal(b1-4)GlcNAc(b1-2)Man(a1-6)]Man(b1-4)GlcNAc(b1-4)[Fuc(a1-6)]GlcNAc
# In short: as §1
# [35] = target: Neu5Ac(a2-6)Gal(b1-4)GlcNAc(b1-2)Man(a1-6)Man(b1-4)GlcNAc(b1-4)GlcNAc
# In short: as §1
# [36] = target: Neu5Ac(a2-6)Gal(b1-4)GlcNAc(b1-2)Man(a1-6)[Gal(b1-4)GlcNAc(b1-2)Man(a1-3)]Man(b1-4)GlcNAc(b1-4)GlcNAc
# In short: as §1
# [37] = target: Neu5Ac(a2-6)Gal(b1-4)GlcNAc(b1-2)Man(a1-6)[GlcNAc(b1-2)Man(a1-3)]Man(b1-4)GlcNAc(b1-4)GlcNAc
# In short: as §1
# [38] = target: Neu5Ac(a2-6)Gal(b1-4)GlcNAc(b1-2)Man(a1-6)[Man(a1-3)]Man(b1-4)GlcNAc(b1-4)GlcNAc
# In short: as §1
# [39] = target: Neu5Ac(a2-6)Gal(b1-4)GlcNAc(b1-2)[Neu5Ac(a2-6)Gal(b1-4)GlcNAc(b1-4)]Man(a1-3)[GlcNAc(b1-4)][Neu5Ac(a2-6)Gal(b1-4)GlcNAc(b1-2)[Neu5Ac(a2-6)Gal(b1-4)GlcNAc(b1-6)]Man(a1-6)]Man(b1-4)GlcNAc(b1-4)GlcNAc
# In short: as §1
# [40] = target: Neu5Ac(a2-6)Gal(b1-4)GlcNAc(b1-2)[Neu5Ac(a2-6)Gal(b1-4)GlcNAc(b1-4)]Man(a1-3)[GlcNAc(b1-4)][Neu5Ac(a2-6)Gal(b1-4)GlcNAc(b1-4)Man(a1-6)]Man(b1-4)GlcNAc(b1-4)GlcNAc
# In short: as §1
# [41] = target: Neu5Ac(a2-6)Gal(b1-4)GlcNAc(b1-2)[Neu5Ac(a2-6)Gal(b1-4)GlcNAc(b1-6)]Man(a1-6)[Neu5Ac(a2-6)Gal(b1-4)GlcNAc(b1-2)Man(a1-3)][GlcNAc(b1-4)]Man(b1-4)GlcNAc(b1-4)GlcNAc
# In short: as §1
# [42] = target: Neu5Ac(a2-6)Gal(b1-4)GlcNAc(b1-3)Gal(b1-3)GlcNAc
# In short: as §1
# [43] = target: Neu5Ac(a2-6)Gal(b1-4)GlcNAc(b1-3)Gal(b1-4)GlcNAc
# In short: as §1
# [44] = target: Neu5Ac(a2-6)Gal(b1-4)GlcNAc(b1-3)Gal(b1-4)GlcNAc(b1-2)Man(a1-3)[Neu5Ac(a2-6)Gal(b1-4)GlcNAc(b1-3)Gal(b1-4)GlcNAc(b1-2)Man(a1-6)]GalNAc
# In short: as §1
# [45] = target: Neu5Ac(a2-6)Gal(b1-4)GlcNAc(b1-3)Gal(b1-4)GlcNAc(b1-3)Gal(b1-4)GlcNAc
# In short: as §1
# [46] = target: Neu5Ac(a2-6)Gal(b1-4)GlcNAc(b1-3)Gal(b1-4)GlcNAc(b1-3)Gal(b1-4)GlcNAc(b1-2)Man(a1-3)[Neu5Ac(a2-6)Gal(b1-4)GlcNAc(b1-3)Gal(b1-4)GlcNAc(b1-3)Gal(b1-4)GlcNAc(b1-2)Man(a1-6)]GalNAc
# In short: as §1
binder,measurement,setting,value
B1,glycan array binding signal (z-score),[1],0.154
same,glycan array binding signal (z-score),[2],-0.254
same,glycan array binding signal (z-score),[3],0.197
same,glycan array binding signal (z-score),[4],0.689
same,glycan array binding signal (z-score),[5],-0.523
same,glycan array binding signal (z-score),[6],-0.204
same,glycan array binding signal (z-score),[7],-0.039
same,glycan array binding signal (z-score),[8],0.271
same,glycan array binding signal (z-score),[9],-0.176
same,glycan array binding signal (z-score),[10],4.79
same,glycan array binding signal (z-score),[11],0.074
same,glycan array binding signal (z-score),[12],-0.68
same,glycan array binding signal (z-score),[13],-0.425
same,glycan array binding signal (z-score),[14],-0.53
same,glycan array binding signal (z-score),[15],-0.756
same,glycan array binding signal (z-score),[16],-0.229
same,glycan array binding signal (z-score),[17],-0.491
same,glycan array binding signal (z-score),[18],-0.608
same,glycan array binding signal (z-score),[19],-0.529
same,glycan array binding signal (z-score),[20],-0.496
same,glycan array binding signal (z-score),[21],-0.228
same,glycan array binding signal (z-score),[22],-0.476
same,glycan array binding signal (z-score),[23],-0.325
same,glycan array binding signal (z-score),[24],-0.396
same,glycan array binding signal (z-score),[25],-0.425
same,glycan array binding signal (z-score),[26],-0.386
same,glycan array binding signal (z-score),[27],-0.091
same,glycan array binding signal (z-score),[28],-0.161
same,glycan array binding signal (z-score),[29],-0.072
same,glycan array binding signal (z-score),[30],-0.292
same,glycan array binding signal (z-score),[31],-0.944
same,glycan array binding signal (z-score),[32],-0.541
same,glycan array binding signal (z-score),[33],-0.137
same,glycan array binding signal (z-score),[34],-0.116
same,glycan array binding signal (z-score),[35],-0.365
same,glycan array binding signal (z-score),[36],0.191
same,glycan array binding signal (z-score),[37],-0.598
same,glycan array binding signal (z-score),[38],-0.33
same,glycan array binding signal (z-score),[39],-0.093
same,glycan array binding signal (z-score),[40],-0.234
same,glycan array binding signal (z-score),[41],-0.82
same,glycan array binding signal (z-score),[42],0.012
same,glycan array binding signal (z-score),[43],-0.431
same,glycan array binding signal (z-score),[44],0.147
same,glycan array binding signal (z-score),[45],-0.213
same,glycan array binding signal (z-score),[46],1.34
